Screen size: about 48,000 compounds; about 120 (0.25%) were called active. Not shown: some 4% with an inconclusive outcome. The call rests on the fitted dose curve; in most records, active means well fitted activation curve with a large enough effect; inconclusive means small, poorly fitted or top-dose-only effect, or another doubt; inactive means no such curve, though single readings can be large or run the other way. Some of the results follow.
Assay: Primary qHTS for Identification of Small Molecule Activators of Huntingtin-Antisense Promoter Activity; further: nearly all actives have a fitted effect of over 55% in size
Conditions: HEK293 HTT-AS promoter firefly luciferase reporter (activity 0% = vehicle and -100% = no light), 24 h; series mostly up to 57.5 µM; activity change, positive = activation: at the top concentration
How it was run: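 Quantitative HTS used concentration series of up to 57.5 uM final on HEK293 luciferase reporter cells, 24 h at 37 degrees C. Readout was Dual-Glo firefly luminescence.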

Activity change, positive = activation, inactive:
CCCCc1ccc(-n2nc3cc(C)c(NC(=O)Cc4ccccc4)cc3n2)cc1 -2.34%
Cc1ccc2cccc(NC(=O)COc3ccccc3[N+](=O)[O-])c2n1 -0.477%
CCN(CC)c1ccc(NC(=O)CSc2nnc(C)c(=O)[nH]2)cc1 -17.2%
C=CC(=O)Nc1cccc(Oc2nc(Nc3ccc(N4CCN(C)CC4)cc3)ncc2Cl)c1 -33.6%
CCCN(CCC)C(=O)CSc1nnc2cc(C)c3cc(C)cc(C)c3n12 -11.3%
O=C(Nc1cc(Cl)cc(Cl)c1)c1ccc(F)c(S(=O)(=O)NC2CCCC2)c1 -16.9%
Cc1cccc(CN2C(=O)c3ccccc3Sc3ccc(C(=O)N4CCCC4)cc32)c1 -37.7%
CCOC(=O)c1c(NC(=O)COc2ccccc2F)sc2c1CCCC2 -1.76%
COCCN1C(=O)c2[nH]nc(-c3ccccc3O)c2C1c1ccc(OCc2ccccc2)c(OC)c1 (configuration not stated) -37.5%
CCc1ccc(N(CC)C(=O)c2ccc3c(=O)n4c(nc3c2)CCCCC4)cc1 -24.3%
CCn1c(C(=O)N2CCC(C(=O)NCCc3ccccc3)CC2)cc2sccc21 -8.39%
CCC(Sc1nnc(-c2ccc(OC)cc2)c(-c2ccc(OC)cc2)n1)C(=O)NC1CCCCC1 (configuration not stated) -0.717%
Cc1ccc(-n2c3nc(=O)n(C)c(=O)c-3cc3c(Cl)cccc32)c(C)c1 -13.1%
Cc1ccc(NS(=O)(=O)c2ccc(NC(=O)N3CCCC3)cc2)cc1C -6.23%
CC1CCCN(S(=O)(=O)c2ccc(NC(=O)c3nc(SC(C)C)ncc3Cl)cc2)C1 (configuration not stated) -20.6%
CCCCN(Cc1ccccc1)C(=O)c1oc(=O)c2ccccc2c1-c1ccc(C)cc1 -50.1%
COc1ccc(N2CC(NC(=O)c3ccc(S(=O)(=O)N4CCCC4)cc3)CC2=O)cc1 (configuration not stated) -17.9%
CCOC(=O)c1ccc(NC(=O)C(CC)Sc2nc3ncccc3[nH]2)cc1 (configuration not stated) -14.1%
COc1ccc(-n2nc(C(=O)N3CCN(c4ccccc4OC)CC3)c3c4ccccc4n(C)c3c2=O)cc1 -0.364%
COc1cccc(N2CC(NC(=O)/C=C\c3ccc4c(c3)OCO4)CC2=O)c1 (configuration not stated) -9.84%
Cc1ccc(C(=O)N2CCC(c3c[nH]c4ccccc34)(c3c[nH]c4ccccc34)CC2)cc1 -35.9%
Cn1nccc1C(=O)NCc1ccc2c(c1)CCN2C(=O)c1ccc(F)cc1 -12%
CN1[C@@H]2CCC[C@@H]1CC(NC(=O)c1nn(C)c3ccccc13)C2 (some centres not stated) -8.9%
COc1cccc(CNC(=O)c2ccc(Cn3c(SCc4ccccc4)nc4cccnc43)cc2)c1 -4.79%
COc1cc(Cl)ccc1Nc1ncc(C(=O)N2CCN(c3ccccc3OC)CC2)c2ccccc12 -5.22%
COc1ccccc1Nc1cc(C(=O)NCCCN(C)c2ccccc2)c2ccccc2n1 -26.9%
O=C(CSc1nc(-c2ccccc2)nc2c1CCCC2)c1ccc(F)cc1 -11.2%
CCC(=O)N1c2ccc(S(=O)(=O)NCc3cccc(OC)c3)cc2CC1C (configuration not stated) -22.8%
Cc1ccc(S(=O)(=O)c2nc(-c3ccco3)oc2SC(C)c2ccccc2)cc1 (configuration not stated) -25.9%
COc1cc(NC(=O)CCc2c(C)nc3nc(-c4cc(OC)cc(OC)c4)nn3c2C)cc(OC)c1 -17.1%
CCCCN(CC)CCNC(=O)c1cc2c(-c3ccc(Cl)cc3)nn(C)c2s1 -13.9%
Cc1nc2ccccc2n1CC(O)COc1ccc(C(=O)O)cc1 (configuration not stated) -17.6%
COc1ccc(N(CC(=O)NCc2ccc(F)cc2)S(=O)(=O)c2c(C)n[nH]c2C)cc1 -3.49%
COc1ccc(OCCCn2c(=O)oc3ccc(C)cc32)cc1 -12.2%
O=C(CSc1nc2c(oc3ccccc32)c(=O)n1Cc1ccco1)Nc1cccc(Cl)c1 -1.23%
Cc1cn(C)c(CC(=O)Nc2cccc(Cl)c2C)c1C(=O)O -2.57%
COc1cc2c(cc1NS(=O)(=O)c1cccc(C#N)c1)n(C)c(=O)n2C -13.6%
Cc1cc(C)cc(NC(=O)CN2C(=O)c3ccccc3Sc3ccc(C(=O)N4CCOCC4)cc32)c1 -4.14%
Cc1ccc(C)c(Cn2nnc(C(=O)NCc3ccc(Cl)cc3Cl)c2N)c1 -4.23%
CCc1ccccc1NC(=O)CN1C(=O)CCc2cc(S(=O)(=O)N3CCCCC3)ccc21 -19.1%
Cc1ccc(CNC(=O)c2ccc(CSCc3ccc(Cl)cc3)o2)cc1 -16.8%
Nc1ncnc2c1ncn2[C@@H]1O[C@H](CO)[C@@H](O)[C@@H]1O -3.07%
C/C(=C(/OCCOc1ccc(Cl)cc1)c1ccc(Cl)cc1Cl)n1ccnc1 -28.2%
CCOc1ccccc1C(=O)Nc1c(NC)c2ccccc2oc1=O -7.86%
O=C(NCc1cccc(F)c1)C1=Cc2cc(Br)ccc2OC1 -14%
Cc1ccc(-n2ccnc(NCc3ccccc3)c2=O)cc1C -8.46%
O=C(Nc1cc(C(F)(F)F)ccc1Cl)c1cc2nc(-c3ccc4c(c3)OCO4)cc(C(F)(F)F)n2n1 13.7%
Cn1c(=O)oc2cc(S(=O)(=O)N3CCCC(C(=O)Nc4ccc(Br)cc4F)C3)ccc21 (configuration not stated) -25.9%
COC(=O)c1cc(NC(=O)Cn2nc(C)n3cccc3c2=O)cc(C(=O)OC)c1 -0.559%
CCC(C)NC(=O)c1ccc(-n2c(-c3ccccc3)cc3c2CCCC3)cc1 (configuration not stated) 17.5%
Cc1ccc(-c2c(C(=O)NCc3ccccc3)oc(=O)c3ccccc23)cc1 -19.5%
CCOC(=O)C1=C(CS(=O)(=O)c2ccc(Br)cc2)NC(=O)NC1c1ccccc1 (configuration not stated) -21.1%
Cc1ccccc1CNC(=O)c1ccc(-c2nc(CS(=O)(=O)c3ccccc3)c(C)o2)cc1 -41.8%
CC(=O)c1c(C)oc2ccc(N(C(=O)Oc3ccccc3)S(=O)(=O)c3ccc(C(C)(C)C)cc3)cc12 -37%
CCc1cccc(C)c1NC(=O)c1cc(C)nc2c1c(C)nn2-c1cccc(Cl)c1C -8.45%
COc1ccc(C)cc1NC(=O)CN(c1cc(C(F)(F)F)ccc1Cl)S(C)(=O)=O -30.8%
COc1cc(NC(=O)c2cc(Cl)c(OC)c(Cl)c2)ccc1NC(=O)c1cc2ccccc2o1 -7.33%
Cc1cccc(C(=O)NCCc2sc(-c3ccccc3)nc2C)c1 -17.9%
CCOC(=O)c1sc2ccccc2c1S(=O)(=O)Nc1cccc(C(F)(F)F)c1 -38.5%
Cc1coc2c1c(C)cc1oc(=O)cc(C)c12 -7.51%
CCCCN(C)C(=O)C(Cc1ccccc1)NS(=O)(=O)c1ccc2c(c1)c(=O)n(C)c(=O)n2C (configuration not stated) -30.2%
COc1ccc(-c2nnc(SCC(=O)Oc3c(C)cccc3C)o2)cc1OC 0.843%
Cc1oc(-c2cccc(Cl)c2)nc1CN1CCCC(C(=O)NCc2ccc(F)cc2)C1 (configuration not stated) -17.6%
CC(C)c1ccc(S(=O)(=O)c2nnn3c2nc(NC2CCCC2)c2sccc23)cc1 -13.3%
Cc1ccc(CSCC(=O)N2CCN(c3ccc(F)cc3)CC2)cc1 -7.52%
Cc1ccc2c(=O)cc(CSc3ccccc3)[nH]c2c1C -4.28%
CC(=O)c1cccc(S(=O)(=O)NCCc2csc3nc(-c4ccc(F)cc4)nn23)c1 -33.4%
Cc1nc(CC(=O)Nc2cccc(C)c2C)cs1 -13.1%
Cc1cccc(N(CC(=O)Nc2ccc(Br)cc2)S(C)(=O)=O)c1C -14%
COc1ccc(C(=O)NCc2ccc3c(c2)CCN3C(=O)c2ccncc2)cc1 -11.3%
COc1ccc(OC)c(NC(=O)c2c(NCc3ccc(C)o3)sc3c2CCC(C)C3)c1 (configuration not stated) -28.5%
Cc1cc(OC(=O)c2cc(-c3ccc4c(c3)OCCO4)on2)ccc1Cl 0.573%
Cc1ccc(CN2CCCn3nc(C(=O)NCCc4ccc(Cl)cc4)cc3C2=O)cc1 -40.1%
COc1ccc2c(c1)-c1nc(NC(=O)c3cc(Cl)ccc3OC)sc1CC2 -10.7%
COc1ccccc1CNC(=O)CCn1c(=O)c2ccccc2n(CC(=O)Nc2ccc(C)cc2C)c1=O -12.3%
CN1c2ccccc2-c2nc(SCC(=O)Nc3ccccc3C(F)(F)F)ncc2S1(=O)=O -7.46%
Cc1ccc(CSc2nc3ccc(NC(=O)C(C)C)cc3s2)cc1 -19.5%
CCN(Cc1ccccc1)C(=O)Cn1c(=O)n(Cc2ccccc2)c(=O)c2c1c1cc(OC)ccc1n2C -10.5%
COc1ccc(C(CC(=O)Nc2ccc(C)c(C)c2)N2Cc3ccccc3C2=O)cc1OC (configuration not stated) -36.3%
O=C(NCC(c1cccnc1)N1CCN(Cc2ccccc2)CC1)C(=O)Nc1ccc(Cl)cc1 (configuration not stated) -31.7%
Cc1cc(OC(C)C(=O)N2CCC(c3nc4ccccc4o3)CC2)ccc1Cl (configuration not stated) -41.9%
CC1(C)OC[C@@H](COC(=O)CCc2ccc(OC[C@@H](O)CNCCNC(=O)N3CCOCC3)cc2)O1 -0.948%
COc1ccccc1NC(=O)CSc1ccc(-c2ccccn2)nn1 -5.34%
Cc1ccc(N(C)C(CNS(=O)(=O)c2ccccc2)c2ccccc2)cc1 (configuration not stated) -21%
CCn1ccc2cc(S(=O)(=O)N3CCCN(C(=O)Nc4cccc(SC)c4)CC3)ccc21 -15.7%
CCCNC(=O)C1CCN(C(=O)N2CC(C)Oc3ccccc32)CC1 (configuration not stated) 1.3%
Cc1ccc(CNC(=O)C2CCC(CNS(=O)(=O)c3ccc(C)cc3)CC2)cc1 (configuration not stated) -1.72%
CCCCN(C)S(=O)(=O)c1ccc(NC2=NS(=O)(=O)c3ccccc32)cc1 -29.7%
COc1ccc(-n2ccnc2SCC(=O)Nc2cccc(OC)c2)cc1 -20.1%
Cc1ccc(NC(=O)Cn2cc(C(=O)c3ccco3)c3ccccc32)cc1C -19.2%
CCCCCCNC(=O)c1c[nH]c2ccc(S(=O)(=O)N(C)c3ccc(C(C)C)cc3)cc2c1=O -7.13%
N#C/C(=C/c1ccccc1Cl)c1nc2ccccc2c(=O)[nH]1 -9.55%
COc1ccc(N2CCN(C3(c4ccccc4)C(=O)c4ccccc4C3=O)CC2)cc1 -20.7%
Cc1ccc(Cl)cc1N(C)C(=O)c1cc2c(Cl)nc3ccccc3c2s1 -11.7%
O=C(C1CCC(Cn2c(=O)c3sccc3n(Cc3cccc(F)c3)c2=O)CC1)N1CCOCC1 (configuration not stated) -25.5%
COc1cccc(OC(=O)CSc2nnc(-c3cccs3)o2)c1 -1.14%
Cc1cc2nn(-c3ccc(F)cc3)nc2cc1NC(=O)c1cccc([N+](=O)[O-])c1C 27.6%
